How the values were obtained:
[1] = target: T1, human growth hormone receptor on IM-9 cells (human, UniProt P10912 19-638); assay: cell-based or functional assay
T1 sequence (looked up): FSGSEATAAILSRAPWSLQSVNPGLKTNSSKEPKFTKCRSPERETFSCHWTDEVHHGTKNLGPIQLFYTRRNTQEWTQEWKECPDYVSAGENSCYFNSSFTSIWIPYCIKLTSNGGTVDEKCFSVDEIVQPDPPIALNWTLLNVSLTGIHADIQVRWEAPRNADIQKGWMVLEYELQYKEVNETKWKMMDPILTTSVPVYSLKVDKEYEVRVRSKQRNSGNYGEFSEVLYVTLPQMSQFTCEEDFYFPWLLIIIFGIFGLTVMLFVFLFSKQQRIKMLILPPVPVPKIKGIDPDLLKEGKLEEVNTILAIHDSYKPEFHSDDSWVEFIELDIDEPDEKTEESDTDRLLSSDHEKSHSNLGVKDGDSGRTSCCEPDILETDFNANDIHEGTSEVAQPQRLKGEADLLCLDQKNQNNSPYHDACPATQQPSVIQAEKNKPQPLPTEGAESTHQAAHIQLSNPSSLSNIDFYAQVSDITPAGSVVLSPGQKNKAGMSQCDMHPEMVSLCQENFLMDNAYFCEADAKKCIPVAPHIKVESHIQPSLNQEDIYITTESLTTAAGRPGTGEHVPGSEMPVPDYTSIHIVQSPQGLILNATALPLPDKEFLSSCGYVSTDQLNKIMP

[2] = target: T2, rat GHR ECD (L43R), soluble, C-terminal 6His (rat, UniProt P16310 47-256); assay: Biacore SPR; rat GHR ECD (L43R) on CM5 chip, GH injected; bivalent analyte model
T2 construct: also called soluble GHR ECD; rat GHR (L43R) extra cellular domain; not shown: C-terminal 6His tag of pET20b
T2 sequence (looked up): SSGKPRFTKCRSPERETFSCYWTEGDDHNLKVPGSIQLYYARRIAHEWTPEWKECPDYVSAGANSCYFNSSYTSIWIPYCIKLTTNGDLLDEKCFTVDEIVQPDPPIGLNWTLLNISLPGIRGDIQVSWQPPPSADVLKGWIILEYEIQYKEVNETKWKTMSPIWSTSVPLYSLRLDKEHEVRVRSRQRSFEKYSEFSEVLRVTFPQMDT

EC50 (nM), STAT5 phosphorylation in IM-9 cells [1]: > 200000 nM | Kd [2]: 10 nM | koff [2]: 0.0022 s⁻¹ | kon [2]: 220000 M⁻¹ s⁻¹
B1: hGH G120R (ligand)
chain: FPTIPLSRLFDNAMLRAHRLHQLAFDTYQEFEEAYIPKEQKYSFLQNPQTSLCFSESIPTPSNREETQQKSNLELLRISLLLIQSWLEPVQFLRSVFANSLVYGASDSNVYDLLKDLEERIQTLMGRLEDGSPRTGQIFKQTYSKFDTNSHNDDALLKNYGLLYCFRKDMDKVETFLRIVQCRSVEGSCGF
notes: also called G120R bearing hGH; hGH antagonist with the G120R substitution

Source: patent US20060189529A1 (AMBRX, published 2006)
